From the antibiotic and cytotoxicity screens of Wong et al. (2023) come the findings set out here.

Assay [1] relates to HSkMC (human skeletal muscle cells). As to the kind of experiment: cytotoxicity call (relative viability < 0.9). To be noted: 10 µM.
Assay [2] deals with HepG2. As to the kind of experiment: cytotoxicity call (relative viability < 0.9). To be noted: 10 µM.
For assay [3], the system named is S. aureus RN4220. As to the kind of experiment: growth inhibition call (relative growth <= 0.2). As to conditions: 50 µM.

The list shows a part of the results.

Take `C[C@@H]1CN([C@H](C)CO)C(=O)c2cc(NC(=O)C3CCCCC3)ccc2O[C@@H](C)CCCCO[C@H]1CN(C)C(=O)NC1CCCCC1`: the cytotoxicity call in assay [1] and in assay [2] was “inactive” in each case. Moreover, the growth inhibition call in assay [3] was “inactive”.
With `C[C@H](CO)N1C[C@H](C)[C@H](CN(C)Cc2ccc(C(F)(F)F)cc2)Oc2ccc(NS(=O)(=O)c3ccc(Cl)cc3)cc2C1=O`, the cytotoxicity call in assay [1] and in assay [2] was “active” throughout. Besides, in assay [3], the growth inhibition call is “inactive”.
Consider `O=C1c2c(O)cccc2C(C2OC(CO)C(O)C(O)C2O)c2cc(CO)cc(O)c21` (stereo not drawn), for which the cytotoxicity call in assay [1] was “inactive”. Moreover, the cytotoxicity call in assay [2] is “active”. For the same molecule, the growth inhibition call in assay [3] is “inactive”.
Take `C[C@@H]1CCCCO[C@H](CN(C)S(C)(=O)=O)[C@H](C)CN([C@@H](C)CO)C(=O)c2cc(NS(=O)(=O)c3cccs3)ccc2O1`: the cytotoxicity call in assay [1] and in assay [2] was “inactive” each time. In assay [3], the growth inhibition call is “inactive”.
As to `COc1cc2c(N3CCN(C(=O)Nc4ccc(OC(C)C)cc4)CC3)ncnc2cc1OCCCN1CCCCC1`, the cytotoxicity call in assay [1] and in assay [2] was “inactive” in each case. Moreover, the growth inhibition call in assay [3] is “inactive”.
`C[C@H](CO)N1C[C@H](C)[C@H](CN(C)CC2CC2)Oc2ccc(NC(=O)Cn3cnnn3)cc2C1=O`: the cytotoxicity call in assay [1] and in assay [2] was “inactive” each time. Further, in assay [3], the growth inhibition call was “inactive”.
For the molecule `Cc1c(C#N)c(Sc2ccccc2Cl)nc2ccccc12`, the cytotoxicity call in assay [1] and in assay [2] was “inactive” in each case. Moreover, the growth inhibition call in assay [3] was “inactive”.
Take `C[C@H]1CN([C@@H](C)CO)C(=O)c2c(c3ccccc3n2C)-c2ccccc2CO[C@@H]1CN(C)Cc1cccc(O)c1`: the cytotoxicity call in assay [1] and in assay [2] was “inactive” each time. Besides, the growth inhibition call in assay [3] was “inactive”.
For the molecule `C[C@@H](O)C#Cc1cnc2c(c1)C(=O)N([C@@H](C)CO)C[C@H](C)[C@H](CN(C)C(=O)CN1CCOCC1)O2`, the cytotoxicity call in assay [1] and in assay [2] was “inactive” throughout. The growth inhibition call in assay [3] is “inactive”.
On to `COc1ccc(NC(=O)N(C)C[C@@H]2OCCCC[C@@H](C)Oc3ccc(NS(=O)(=O)c4cccs4)cc3C(=O)N([C@H](C)CO)C[C@@H]2C)cc1`, for which the cytotoxicity call in assay [1] and in assay [2] was “inactive” throughout. Moreover, in assay [3], the growth inhibition call was “inactive”.
Turning to `Cn1cnc2c(C(F)(F)F)nc(N)nc21`, the cytotoxicity call in assay [1] and in assay [2] was “inactive” each time. In addition, the growth inhibition call in assay [3] was “inactive”.
In the case of `O=C1OCC=C[C@H]2O[C@@]34C=CCN(c5ccc(Cl)cc5)C(=O)[C@H]3N(CCCCCCO)C(=O)[C@@H]4[C@@H]12`, the cytotoxicity call in assay [1] and in assay [2] was “inactive” throughout. In addition, in assay [3], the growth inhibition call is “inactive”.
`CC1=CC2C(C(C)C)CCC(C)(O)C2CC1` (stereo not drawn): the cytotoxicity call in assay [1] and in assay [2] was “inactive” in each case. In assay [3], the growth inhibition call is “inactive”.
For `CC1=C(CCC(=O)O)c2cc3[nH]c(cc4nc(cc5[nH]c(cc1n2)c(C)c5C(C)O)C(C)=C4C(C)O)c(C)c3CCC(=O)O` (stereo not drawn), the cytotoxicity call in assay [1] was “inactive”. Further, the cytotoxicity call in assay [2] was “active”. Moreover, in assay [3], the growth inhibition call was “inactive”.
In the case of `O=C(C[C@@H]1CC[C@H](NS(=O)(=O)c2ccc(F)cc2)[C@H](CO)O1)N1CCC(Cc2ccccc2)CC1`, the cytotoxicity call in assay [1] and in assay [2] was “inactive” each time. Also, the growth inhibition call in assay [3] was “inactive”.
`C[C@H]1CN([C@@H](C)CO)S(=O)(=O)c2ccc(-c3cccnc3)cc2O[C@H]1CN(C)CC1CCOCC1`: the cytotoxicity call in assay [1] and in assay [2] was “inactive” throughout. Moreover, the growth inhibition call in assay [3] was “inactive”.
With `Cc1noc(C)c1S(=O)(=O)Nc1ccc2c(c1)C(=O)N([C@H](C)CO)C[C@H](C)[C@@H](CN(C)Cc1ccccc1)OCCCC[C@H](C)O2`, the cytotoxicity call in assay [1] and in assay [2] was “inactive” in each case. In addition, the growth inhibition call in assay [3] was “inactive”.
On to `C[C@@H]1CN([C@H](C)CO)C(=O)c2cccc(NC(=O)C3CCCCC3)c2O[C@H]1CN(C)Cc1ccc(-c2ccccc2)cc1`, for which the cytotoxicity call in assay [1] and in assay [2] was “inactive” in each case. Also, in assay [3], the growth inhibition call was “inactive”.
For the molecule `COc1cccc(C#Cc2cnc3c(c2)C(=O)N([C@@H](C)CO)C[C@@H](C)[C@H](CN(C)C(=O)C2CCC2)O3)c1`, the cytotoxicity call in assay [1] and in assay [2] was “inactive” each time. Further, the growth inhibition call in assay [3] is “inactive”.
Regarding `O=C(NNC(=O)C1CCNCC1)c1cccnc1`, the cytotoxicity call in assay [1] and in assay [2] was “inactive” in each case. In addition, in assay [3], the growth inhibition call is “inactive”.
With `COc1ccc(S(=O)(=O)Nc2ccc3c(c2)C(=O)N([C@@H](C)CO)C[C@@H](C)[C@@H](CN(C)S(=O)(=O)c2c(C)noc2C)O3)cc1`, the cytotoxicity call in assay [1] and in assay [2] was “inactive” in each case. Further, the growth inhibition call in assay [3] was “inactive”.
`COc1ccc(C#Cc2ccc3c(c2)[C@]2(C(=O)N3)[C@H](C(=O)N3CCCCCCC3)[C@H]3C(=O)O[C@H](c4ccccc4)[C@H](c4ccccc4)N3[C@@H]2c2ccc(O)cc2)cc1`: the cytotoxicity call in assay [1] was “inactive”. Also, the cytotoxicity call in assay [2] was “active”. The growth inhibition call in assay [3] is “inactive”.
As to `COc1ccc(CN(C)C[C@@H]2OCCCC[C@H](C)Oc3ccc(NC(=O)Nc4ccc(C(F)(F)F)cc4)cc3C(=O)N([C@H](C)CO)C[C@@H]2C)cc1`, the cytotoxicity call in assay [1] and in assay [2] was “active” each time. The growth inhibition call in assay [3] was “inactive”.
Turning to `CCS(=O)(=O)NCC[C@H]1CC[C@H](NC(=O)C2CCOCC2)[C@H](CO)O1`, the cytotoxicity call in assay [1] and in assay [2] was “inactive” throughout. In assay [3], the growth inhibition call was “inactive”.
`C[C@@H]1CCCCO[C@H](CN(C)Cc2ccc(Cl)c(Cl)c2)[C@H](C)CN([C@@H](C)CO)C(=O)c2cc(NC(=O)Nc3ccc(F)cc3)ccc2O1`: the cytotoxicity call in assay [1] and in assay [2] was “inactive” in each case. In assay [3], the growth inhibition call is “inactive”.
As for `COC(=O)Nc1c(C)cc(C)cc1C`, the cytotoxicity call in assay [1] and in assay [2] was “inactive” in each case. In addition, in assay [3], the growth inhibition call was “inactive”.
